Measured values: article PMC6919601, “Identification of Plasmodium dipeptidyl aminopeptidase allosteric inhibitors by high throughput screening” (PLoS ONE, 2019)
Out of some 110,000 compounds screened, about 230 (0.21%) showed an effect of 50% or more. The list shows a part of the results.

These compounds were tested against DPAP1 (Plasmodium falciparum, UniProt Q8IIJ9) (assay: primary screen, percent inhibition; read by cleavage of a fluorogenic dipeptide substrate; higher = more effect of the substance).
DPAP1, sequence (Q8IIJ9 whole entry, looked up): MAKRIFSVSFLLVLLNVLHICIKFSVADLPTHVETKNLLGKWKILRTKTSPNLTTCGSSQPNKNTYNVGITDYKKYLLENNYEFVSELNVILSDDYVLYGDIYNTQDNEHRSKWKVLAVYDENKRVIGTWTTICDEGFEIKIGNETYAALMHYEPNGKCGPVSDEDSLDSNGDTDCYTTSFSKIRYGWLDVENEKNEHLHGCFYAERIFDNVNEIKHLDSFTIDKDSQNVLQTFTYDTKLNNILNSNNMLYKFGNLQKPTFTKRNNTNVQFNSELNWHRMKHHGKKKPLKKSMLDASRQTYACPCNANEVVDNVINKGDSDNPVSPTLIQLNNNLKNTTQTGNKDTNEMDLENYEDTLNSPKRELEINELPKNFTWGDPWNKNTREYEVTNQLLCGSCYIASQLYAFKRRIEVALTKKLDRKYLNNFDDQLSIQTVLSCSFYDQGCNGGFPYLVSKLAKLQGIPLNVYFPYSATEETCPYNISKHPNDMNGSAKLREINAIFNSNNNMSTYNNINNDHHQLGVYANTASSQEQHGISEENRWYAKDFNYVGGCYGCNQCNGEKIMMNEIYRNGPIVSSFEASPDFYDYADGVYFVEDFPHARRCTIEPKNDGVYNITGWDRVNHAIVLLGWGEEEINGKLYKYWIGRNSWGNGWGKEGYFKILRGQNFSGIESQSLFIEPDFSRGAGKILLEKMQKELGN
Design: species or system P. falciparum D10 trophozoite lysates; single well
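Further: 30 min substrate incubation versus DMSO and 10 µM JCP410 controls.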

Compared with `COc1cc(-c2nc(C(F)(F)F)c(OC)o2)cc(OC)c1OC`, `COc1cc(C(=O)NCCc2csc(-c3cccnc3)n2)cc(OC)c1OC` is lower in “% Inhibition @ 10 uM” value: 2.01% for the first, 0.953% for the second.

Compared with `O=C(CCn1c(=O)c2cccn2c2cccnc21)NCCc1cccs1`, `CCOc1ccccc1CNC(=O)C(C)n1ncn2cccc2c1=O` (centres unmarked) is lower in “% Inhibition @ 10 uM” value: 7.62% for the first, -2.13% for the second.

Going from `O=c1c2ccccc2n2c(-c3cc(Cl)ccc3O)nnc2n1Cc1ccccc1` to `CC(C)Cn1c(=O)c2ccccc2n2c(CCC(=O)N3CCC(Cc4ccccc4)CC3)nnc12`, the “% Inhibition @ 10 uM” value rises from 1.68% to 13.9%.

First: N#Cc1cc2c(nc1SCC(=O)Nc1cnc3ccccc3c1)CCCCCC2
Second: O=C(CNCCc1c[nH]c2ccccc12)Nc1c2c(nc3ccccc13)CCC2
The “% Inhibition @ 10 uM” value of the first is higher: 5.17% for the first, -3.66% for the second.

Going from `COc1ccc(C=C2C(=O)OC(C)(C(C)(C)C)OC2=O)cc1Br` (centres unmarked) to `COc1cc(/C=C2/NC(=O)N(c3cccc(Cl)c3)C2=O)c(Br)cc1O`, the “% Inhibition @ 10 uM” value falls from 1.37% to -3.65%.

Compared with `CC(NC(=O)c1ccc(C23CC4CC(CC(C4)C2)C3)cc1)C(=O)O` (centres unmarked), `Cc1nc([N+](=O)[O-])cn1CC(=O)C12CC3CC(CC(C3)C1)C2` is lower in “% Inhibition @ 10 uM” value: 11.1% for the first, 2.65% for the second.

Compared with `CCN1C(=O)N/C(=C/c2cc(C)n(-c3ccccn3)c2C)C1=O`, `CCn1cc2c(c1-c1ccc(OC)cc1)c(=O)n(C)c(=O)n2C` is lower in “% Inhibition @ 10 uM” value: 0.413% for the first, -3.96% for the second.

Compared with `CCOC(=O)c1c(C)c(C(=O)NCc2ccc(F)cc2)c(C)n1CC`, `Cc1ccc(CNCc2c(C(=O)O)c(C)n(Cc3ccccc3C)c2C)cc1` is higher in “% Inhibition @ 10 uM” value: -3.44% for the first, 11.5% for the second.

Compared with `Cc1[nH]c2ccccc2c1C(=O)CN1CCCC1`, `COc1ccc2[nH]c3c(=O)n(CC(=O)N4CCCC4)c(=S)[nH]c3c2c1` is lower in “% Inhibition @ 10 uM” value: 0.968% for the first, -0.495% for the second.

First: O=C(CN1CCN(CCN2C(=O)c3cccc4cccc(c34)C2=O)CC1)c1ccccc1
Second: O=C(CCN1C(=O)c2ccccc2C1=O)NC(c1ccccc1)C1CCCC1 (centres unmarked)
The “% Inhibition @ 10 uM” value of the first is higher: 5.19% for the first, -2.29% for the second.

Compared with `O=C1c2ccccc2C(=O)N1CCC1=NCCc2ccccc21`, `Cc1ccccc1C1C(=O)c2ccccc2C1=O` is higher in “% Inhibition @ 10 uM” value: -3.16% for the first, 4.16% for the second.

Going from `CC(C)Cn1cc(NC(=O)NCCc2ccc(Cl)cc2)c2ccccc2c1=O` to `Cc1ccccc1N(CC(=O)Nc1ccc(Cl)cc1)S(C)(=O)=O`, the “% Inhibition @ 10 uM” value falls from 1.06% to 0.00477%.

Going from `CC1CCCC(NC(=O)C2CCCCC2C(=O)O)C1C` (centres unmarked) to `CC(C)(C)OC(=O)N1CCC(c2c(C(=O)NC3CCCC3)cnn2-c2ccccc2)CC1`, the “% Inhibition @ 10 uM” value rises from 6.71% to 7.46%.

Going from `COCCCNC(=O)C1c2ccccc2C(=O)N2CCc3cc(OC)c(OC)cc3C12` (centres unmarked) to `COc1ccc(N(CC(=O)Nc2cccc(SC)c2)S(C)(=O)=O)cc1OC`, the “% Inhibition @ 10 uM” value falls from 2.93% to -5.48%.

Going from `Cc1ccccc1-c1nnc2s/c(=C\c3cccs3)c(=O)n12` to `N#CC1=C(N)OC2=C(CN(Cc3ccccc3)C/C2=C\c2cccs2)C1c1cccs1` (centres unmarked), the “% Inhibition @ 10 uM” value rises from -3.33% to 0.76%.

First: CC1CN(Cc2ccccc2)c2ccccc2N=C1S (centres unmarked)
Second: c1ccc(-c2nnc3sc(C4COc5ccccc5O4)nn23)cc1 (centres unmarked)
The “% Inhibition @ 10 uM” value of the first is higher: 3.8% for the first, 1.74% for the second.

Going from `O=C(CSc1cccc2cccnc12)Nc1nnc(-c2ccccc2)s1` to `Cc1ccc(-c2nn(CCC(=O)NCc3cccnc3)c(=O)c3ccccc23)cc1`, the “% Inhibition @ 10 uM” value rises from 1.37% to 3.67%.

First: O=C(NC1CCCCC1)N1CCC(N2CCCCC2)CC1
Second: Cc1ccc(C(C(=O)NC2CCCC2)N2CCN(C(=O)c3ccco3)CC2)cc1 (centres unmarked)
The “% Inhibition @ 10 uM” value of the first is higher: 4.3% for the first, -0.363% for the second.

Compared with `CCOc1ccccc1C1C(C#N)=C(N)OC2=C1C(=O)CCC2` (centres unmarked), `N#CC1=C2SCN(Cc3ccccc3)CN2C(=O)CC1c1ccc(Cl)cc1` (centres unmarked) is higher in “% Inhibition @ 10 uM” value: -2.46% for the first, 42.2% for the second.

Going from `Nc1c(Cl)cnn(-c2ccccc2)c1=O` to `Nc1ccc(NC(=O)c2ccccc2)cc1`, the “% Inhibition @ 10 uM” value falls from 0.827% to -5.65%.

Going from `O=C1c2ccccc2C(=O)c2cc(OCC(O)CN3CCCCC3)ccc21` (centres unmarked) to `COc1ccc2oc(=O)c(C(=O)N3CCN(C/C=C/c4ccccc4)CC3)cc2c1`, the “% Inhibition @ 10 uM” value falls from 3.43% to -2.87%.

Compared with `COc1ccc2nc(NC(=O)C3CCCN(S(=O)(=O)c4c(C)noc4C)C3)sc2c1` (centres unmarked), `COc1cccc2c1cc1c(=O)n(CC(=O)NCC3CCCO3)nc(C)n12` (centres unmarked) is lower in “% Inhibition @ 10 uM” value: 0.708% for the first, -1.7% for the second.

Compared with `O=C(CNC(=O)c1ccccc1C(=O)O)c1ccccc1`, `N#CCNC(=O)C(Cc1ccccc1)NC(=O)OCc1ccccc1` (centres unmarked) is higher in “% Inhibition @ 10 uM” value: -1.82% for the first, 13.5% for the second.

First: C=CCNC(=O)CN1C(=O)c2ccccc2S1(=O)=O
Second: N#CCNC(=O)CCCCCN1C(=O)c2ccccc2C1=O
The “% Inhibition @ 10 uM” value of the first is lower: 1% for the first, 4.61% for the second.

First: COc1ccc(C)cc1N(CC(=O)Nc1cc(C)ccc1C)S(C)(=O)=O
Second: COc1ccc(S(=O)(=O)N(CC(=O)Nc2cc(C)ccc2OC)c2ccccc2)cc1
The “% Inhibition @ 10 uM” value of the first is lower: -6.77% for the first, 0.324% for the second.

Compared with `CCOc1ccc(NS(=O)(=O)c2ccc(N)cc2)cc1`, `CCOc1ccc(C(=O)c2ccc(Cl)cc2)cc1` is lower in “% Inhibition @ 10 uM” value: 0.851% for the first, -0.703% for the second.

Going from `Cc1ccc(NS(=O)(=O)c2ccc([N+](=O)[O-])cc2)c(C)c1` to `O=C(Nc1ccccc1)Nc1ccc(S(=O)(=O)Nc2ccc(F)cc2)cc1`, the “% Inhibition @ 10 uM” value falls from 17.9% to -2.03%.

First: CCC(=O)N1C(C(=O)NCCC(C)C)CSC12CCN(C)CC2 (centres unmarked)
Second: CCn1c(C(=O)N2CCC(C(=O)NCCN(CC(C)C)CC(C)C)CC2)cc2sccc21
The “% Inhibition @ 10 uM” value of the first is higher: -4% for the first, -5.19% for the second.

Compared with `CCCCCCNC(=O)C(CC)NS(=O)(=O)c1ccc(C)cc1` (centres unmarked), `CCC(=O)NS(=O)(=O)c1ccc(NC(=O)c2ccco2)cc1` is higher in “% Inhibition @ 10 uM” value: -5.8% for the first, 0.35% for the second.

Going from `Cc1ccc(NC(=O)COc2cc(C)c(Cl)c(C)c2)c(Br)c1` to `N#CCc1ccc(NC(=O)COc2cc(Cl)c(Cl)cc2Cl)cc1`, the “% Inhibition @ 10 uM” value falls from 1.35% to -1.52%.

Going from `CN(C)c1nc2c(N)ncnc2[nH]1` to `CCc1cc2c(Nc3ccc(Cl)cc3)ncnc2s1`, the “% Inhibition @ 10 uM” value falls from 3.54% to 2.65%.

First: O=C1OC2(CCCCC2)OC(=O)C1=Cc1cccs1
Second: CC1CCN(C2=NC(=O)/C(=C\c3ccccc3Cl)S2)CC1
The “% Inhibition @ 10 uM” value of the first is lower: -0.85% for the first, 10.2% for the second.

First: Cc1cc(-c2ccc(C)c(S(=O)(=O)NCCC3=CCCCC3)c2)on1
Second: Cc1cc(C)c(S(=O)(=O)N2CCCc3ccccc32)c(C)c1
The “% Inhibition @ 10 uM” value of the first is lower: -4.9% for the first, 1.83% for the second.

First: CC1=[N+]([O-])C(C)(C)C(c2cccs2)=[N+]1[O-]
Second: Nc1c(C(=O)Nc2ccccn2)sc2nc(-c3cccs3)cc(C(F)(F)F)c12
The “% Inhibition @ 10 uM” value of the first is lower: -5.28% for the first, -5.07% for the second.

First: O=C(/C=C/c1cccnc1)c1cccc([N+](=O)[O-])c1
Second: COc1ccc(NC(=O)/C=C/c2ccc3c(c2)OCO3)cc1
The “% Inhibition @ 10 uM” value of the first is higher: 0.716% for the first, -0.351% for the second.

Going from `CCOC(=O)C1=C(C)NC(=O)NC1c1ccco1` (centres unmarked) to `CCOC(=O)c1c(N)sc(C(=O)N(CC)CC)c1C`, the “% Inhibition @ 10 uM” value rises from 0.962% to 3.76%.

Compared with `COc1cccc(S(=O)(=O)NCc2ccc(C(=O)Nc3ccc(Cl)cc3)cc2)c1`, `COc1ccc(OC)c(C(=O)c2ccc(C(=O)Nc3ccccc3C#N)cc2)c1` is higher in “% Inhibition @ 10 uM” value: -1.36% for the first, 0.189% for the second.

Compared with `CC1(C)Oc2ccc3ccc(=O)oc3c2C(/C=N/CCc2c[nH]c3ccccc23)=C1O`, `CCc1ccc(OCC(=O)c2c(O)oc3ccccc3c2=O)cc1` is higher in “% Inhibition @ 10 uM” value: -5% for the first, 0.0539% for the second.

Going from `CCOc1ccc(CC(=O)Nc2c(C(C)=O)oc3ccccc23)cc1OCC` to `CO/C=C(\Oc1ccccc1C)C(=O)Nc1ccccc1Cl`, the “% Inhibition @ 10 uM” value falls from 2.15% to -9.4%.

Going from `CN(C)c1ccc(/C=C/CN(CCO)Cc2ccccc2)cc1` to `CS(=O)(=O)N(Cc1ccccc1)c1ccccc1C(=O)NC1CC2CCC1C2` (centres unmarked), the “% Inhibition @ 10 uM” value rises from -1.41% to 5.12%.

Compared with `CC(C)CCNCC1OCc2ccccc2CO1`, `CC1CN(CCC(C)c2ccccc2)CC(C)O1` (centres unmarked) is lower in “% Inhibition @ 10 uM” value: 0.275% for the first, -2.34% for the second.

Compared with `COc1ccc(NC(=O)CN(c2cccc(C(F)(F)F)c2)S(C)(=O)=O)c(OC)c1`, `CCOC(=O)c1ccc(S(=O)(=O)N2CCN(c3ncc(C(F)(F)F)cc3Cl)CC2)cc1` is higher in “% Inhibition @ 10 uM” value: -10.8% for the first, 1.32% for the second.

Compared with `CCN1CCCC1CNC(=O)C1=C(C)C(=O)OC12CCN(C(C)=O)CC2` (centres unmarked), `O=C(O)c1cc(S(=O)(=O)N2CCCCC2)ccc1Br` is lower in “% Inhibition @ 10 uM” value: 3.62% for the first, -4.31% for the second.

First: CC(C)(C)n1ncc2c(=O)n(Cc3ccc(F)cc3)cnc21
Second: O=C(Nc1ccc(CN2CCOCC2)cc1)c1ccc(Br)cc1
The “% Inhibition @ 10 uM” value of the first is lower: -5.37% for the first, 3.48% for the second.

First: CCOc1cc(C2C3=C(CC(C)(C)CC3=O)OC3=C2C(=O)CC(C)(C)C3)cc(Cl)c1O
Second: COc1ccc(C(=O)C2=C(O)C(=O)N(CCCN(C)C)C2c2ccc(Br)cc2)c(C)c1 (centres unmarked)
The “% Inhibition @ 10 uM” value of the first is lower: -6.48% for the first, 1.86% for the second.

First: OCc1ccnc(Cl)c1
Second: O=C(NCCN1CCOCC1)c1ccc(CSCc2cccc(Cl)c2)o1
The “% Inhibition @ 10 uM” value of the first is lower: -1.08% for the first, 5.47% for the second.

Compared with `O=C(Nc1ccc(S(=O)(=O)N2CCCC2)cc1)c1ccc(Br)o1`, `O=C(Nc1ccc2[nH]c3c(c2c1)CCCC3)c1ccco1` is higher in “% Inhibition @ 10 uM” value: -2.68% for the first, 1.03% for the second.

Compared with `CC(C)CN(CCNC(=O)c1cc(-c2ccncc2)nc2ccccc12)CC(C)C`, `Cc1ccc(Oc2nc3ccccn3c(=O)c2/C=C(\C#N)C(=O)NCCCOC(C)C)cc1` is higher in “% Inhibition @ 10 uM” value: -1.79% for the first, 2.16% for the second.

Going from `CCCOc1nc2ccccc2nc1NS(=O)(=O)c1ccccc1` to `O=C(Nc1ccc(Oc2ccccc2)cc1)NC1CCCCC1`, the “% Inhibition @ 10 uM” value rises from -2.18% to 2.48%.

Going from `OCCN1CCN(C2CCC(c3ccccc3)CC2)CC1` (centres unmarked) to `CC(NC(=O)c1cccc2c1C(=O)N(C1CCCCC1)C2)c1ccc2c(c1)OCCO2` (centres unmarked), the “% Inhibition @ 10 uM” value rises from 4.75% to 7.59%.

`CCc1nnc(SCC(=O)O)n1N` was tested, and the “% Inhibition @ 10 uM” value was 3.79%.
